# Reference: the supplement of paper PMC9135407
# Several values for one entry are separate records, joined by “and”; a condition that tells them apart may be missing. Equal entries are not always repeated. Structures can show the parent of a compound that is named as a salt. Among all 5,800 compounds or so, about 620 (11%) showed activity.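 Rule for the calls: active = score above a cut-off or among the top three wells of a plate; in these data no inactive exceeds 0.85.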 The list shows a part of the results, in another mix than the full data.
# Test system: primary human hepatic stellate cells (donor 1)
# Experiment: scaled lipid accumulation score (0 = DMSO-like, 1 = nortriptyline-like); higher = stronger HSC inactivation (lipid re-accumulation), active = hit call of the paper
# Conditions: 48 h
# [1] = library stock concentration: 10 mM
# [2] = library stock concentration: 3.33 mM
smiles,measurement,setting,value
CCN(CC)C(=O)c1cccnc1,scaled lipid accumulation score,[1],inactive: 0.073
CC(C)c1ccc(NC(=O)Cn2cnc3c2c(=O)n(C)c(=O)n3C)cc1,scaled lipid accumulation score,[2],inactive: ≤ 0
same,scaled lipid accumulation score,[1],inactive: ≤ 0
"Cc1c(C2CCN(CCc3ccccc3)CC2)noc1-c1ccc(Cl)cc1 [L-741,742 hydrochloride]",scaled lipid accumulation score,[1],inactive: 0.452
O=C(O)c1ccc(-c2ccc3cc(O)c(C45CC6CC(CC(C6)C4)C5)cc3c2)cc1,scaled lipid accumulation score,[1],inactive: 0.021
Nc1ccn([C@@H]2O[C@H](CO)[C@@H](O)C2(F)F)c(=O)n1 [Gemcitabine hydrochloride],scaled lipid accumulation score,[1],inactive: 0.179
Nc1ccn([C@@H]2O[C@H](CO)[C@@H](O)C2(F)F)c(=O)n1 [Gemcitabine HCl],scaled lipid accumulation score,library stock concentration: 7.6 mM,inactive: ≤ -0.006
Nc1ccn([C@@H]2O[C@H](CO)[C@@H](O)C2(F)F)c(=O)n1 [Gemcitabine],scaled lipid accumulation score,[2],inactive: ≤ 0
same,scaled lipid accumulation score,[1],inactive: ≤ 0
CN1C(=O)CC(c2ccccc2)C1=O (stereo unspecified) [Phensuximide],scaled lipid accumulation score,,inactive: 0.035
CN1C(=O)CC(c2ccccc2)C1=O (stereo unspecified),scaled lipid accumulation score,[1],inactive: ≤ 0
COc1ccccc1N1CCN(CCN(C(=O)C2CCCCC2)c2ccccn2)CC1,scaled lipid accumulation score,[2],inactive: ≤ 0
same,scaled lipid accumulation score,[1],inactive: ≤ 0 and inactive: 0.094
CC1CNc2c(cccc2S(=O)(=O)N[C@@H](CCCNC(=N)N)C(=O)N2CC[C@@H](C)C[C@@H]2C(=O)O)C1 (stereo partly specified) [Argatroban],scaled lipid accumulation score,[2],inactive: 0.03
same,scaled lipid accumulation score,[1],inactive: ≤ 0
CN(C)CCN(Cc1ccccc1)c1ccccn1 [Tripelennamine citrate],scaled lipid accumulation score,library stock concentration: 4.5 mM,inactive: 0.077
CN(C)CCN(Cc1ccccc1)c1ccccn1 [Tripelennamine HCl],scaled lipid accumulation score,[2],inactive: ≤ 0
same,scaled lipid accumulation score,[1],inactive: 0.385
CN(C)CCN(Cc1ccccc1)c1ccccn1,scaled lipid accumulation score,[1],inactive: 0.285
C=CC1=C(C)c2cc3[nH]c(cc4nc(cc5[nH]c(cc1n2)c(C)c5CCC(=O)O)C(CCC(=O)O)=C4C)c(C)c3C=C [Protoporphyrin ix],scaled lipid accumulation score,[1],inactive: ≤ 0
CO[C@H]1C[C@@H]2CC[C@@H](C)[C@@](O)(O2)C(=O)C(=O)N2CCCC[C@H]2C(=O)O[C@H]([C@H](C)C[C@@H]2CC[C@@H](OCCO)[C@H](OC)C2)CC(=O)[C@H](C)/C=C(\C)[C@@H](O)[C@@H](OC)C(=O)[C@H](C)C[C@H](C)/C=C/C=C/C=C/1C [Everolimus (RAD001)],scaled lipid accumulation score,[2],inactive: ≤ 0
same,scaled lipid accumulation score,[1],inactive: ≤ 0
CO[C@H]1C[C@@H]2CC[C@@H](C)[C@@](O)(O2)C(=O)C(=O)N2CCCC[C@H]2C(=O)O[C@H]([C@H](C)C[C@@H]2CC[C@@H](OCCO)[C@H](OC)C2)CC(=O)[C@H](C)/C=C(\C)[C@@H](O)[C@@H](OC)C(=O)[C@H](C)C[C@H](C)/C=C/C=C/C=C/1C,scaled lipid accumulation score,library stock concentration: 80 uM,inactive: ≤ -0.016
same,scaled lipid accumulation score,library stock concentration: 400 uM,inactive: ≤ -0.016
same,scaled lipid accumulation score,library stock concentration: 2 mM,inactive: ≤ -0.016
same,scaled lipid accumulation score,[1],inactive: 0.089
